Measurements: patent publication US9739779B2, “Methods of screening for Janus kinase 3 interacting compounds” (priority 2013, dated 2017)

Target: T1, P-Villin (Homo sapiens, UniProt P09327)
T1 construct: made in house; host or cells: E. coli TKX1 (pGEX2T vector)
T1 sequence (P09327 1-827): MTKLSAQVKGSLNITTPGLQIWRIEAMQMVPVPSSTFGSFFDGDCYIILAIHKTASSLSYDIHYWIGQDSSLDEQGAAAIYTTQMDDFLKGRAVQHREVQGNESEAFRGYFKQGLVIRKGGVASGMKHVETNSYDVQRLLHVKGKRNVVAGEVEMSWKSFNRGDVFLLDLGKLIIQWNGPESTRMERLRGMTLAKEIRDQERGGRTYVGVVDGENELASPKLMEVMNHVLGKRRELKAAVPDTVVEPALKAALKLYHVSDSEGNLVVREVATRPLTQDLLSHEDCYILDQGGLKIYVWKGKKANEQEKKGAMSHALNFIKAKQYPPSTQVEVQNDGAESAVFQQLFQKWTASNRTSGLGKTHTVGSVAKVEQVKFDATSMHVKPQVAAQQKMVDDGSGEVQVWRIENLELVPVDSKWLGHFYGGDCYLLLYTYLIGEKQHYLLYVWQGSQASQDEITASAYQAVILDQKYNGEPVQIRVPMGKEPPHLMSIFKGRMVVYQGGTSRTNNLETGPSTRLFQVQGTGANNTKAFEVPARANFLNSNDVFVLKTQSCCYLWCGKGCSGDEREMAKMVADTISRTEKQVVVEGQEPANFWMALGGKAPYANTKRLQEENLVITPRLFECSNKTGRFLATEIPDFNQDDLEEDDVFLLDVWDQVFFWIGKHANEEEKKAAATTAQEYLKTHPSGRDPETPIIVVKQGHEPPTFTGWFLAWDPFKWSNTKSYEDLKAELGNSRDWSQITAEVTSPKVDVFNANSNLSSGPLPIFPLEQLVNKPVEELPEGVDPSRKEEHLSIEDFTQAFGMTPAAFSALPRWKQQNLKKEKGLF
Experiment: Multiplate ELISA binding of GST-Jak3 and truncated Jak3 fusion proteins to P-Villin
Details: for level of binding to P-Villin: FIG. 8A, GST-alone control subtracted
Description: Absorbance values for wells containing P-Villin contacted with GST alone were used as control, and data presented on the ordinate axis represent absorbance values after subtraction of control values.
To determine the ability of Jak3 to interact with natural compounds including biomolecules, binding studies were performed in a multiplate using the cytoskeletal protein, Villin, known in the art to be a substrate for P-Jak3. Multiplates pre-coated with P-Villin were contacted with increasing concentrations of GST-P-Jak3 fusion protein (test samples) or GST alone (control sample). Binding levels were measured using GST antibody as the primary binding partner, horse radish peroxidase conjugated antibody as the secondary binding partner and 3,3′,5,5′-tetramethylbenzidine as the colorimetric substrate. Raw absorbance data for the control samples were subtracted from the absorbance for the test samples to obtain the corrected absorbance values.
To determine whether the kinase domains of Jak3 are critical for Villin binding, recombinant GST-truncated-Jak3 fusion proteins shown in FIGS. 2C-2E were expressed in BL21 (for non-phosphorylated proteins) or TKX1 (for phosphorylated proteins) cells, and purified. Multiplates pre-coated with P-Villin were contacted with these GST-tagged recombinant truncated-Jak3 or with GST-tagged recombinant WT-Jak3, and binding measured as described supra.

- level of binding to P-Villin: relatively lower level of binding
B1: Jak-V484: GST-truncated Jak3 fusion protein lacking the JH1 and JH2 domains (SEQ ID NO. 9) (protein)
chain: [no letters for about 200 residues]SDLVPRGSPNSMAPPSEETPLIPQRSCSLSSSEAGALHVLLPPRGPGPPQRLSFSFGDYLAEDLCVRAAKACGILPVYHSLFALATEDFSCWFPPSHIFCIEDVDTQVLVYRLRFYFPDWFGLETCHRFGLRKDLTSAILDLHVLEHLFAQHRSDLVSGRLPVGLSMKEQGEFLSLAVLDLAQMAREQAQRPGELLKTVSYKACLPPSLRDVIQGQNFVTRRRIRRTVVLALRRVVACQADRYALMAKYILDLERLHPAATTETFRVGLPGAQEEPGLLRVAGDNGISWSSGDQELFQTFCDFPEIVDVSIKQAPRVGPAGEHRLVTVTRMDGHILEAEFPGLPEALSFVALVDGYFRLICDSRHYFCKEVAPPRLLEEEAELCHGPITLDFAIHKLKAAGSLPGTYILRRSPQDYDSFLLTACVQTPLGPDYKGCLIRQDPSGAFSLVGLSQPHRSLRELLAACWNSGLRVDGAALNLTSCCAPRPKEKSNLIVRRGCTPAPAPG
modifications: amino acid sequence of Glutathione S-transferase-truncated Janus Kinase 3 fusion protein

B2: P-Jak-V484: phosphorylated GST-truncated Jak3 fusion protein lacking the JH1 and JH2 domains (SEQ ID NO: 13) (protein)
chain: [no letters for about 200 residues]SDLVPRGSPNSMAPPSEETPLIPQRSCSLSSSEAGALHVLLPPRGPGPPQRLSFSFGDYLAEDLCVRAAKACGILPVYHSLFALATEDFSCWFPPSHIFCIEDVDTQVLVYRLRFYFPDWFGLETCHRFGLRKDLTSAILDLHVLEHLFAQHRSDLVSGRLPVGLSMKEQGEFLSLAVLDLAQMAREQAQRPGELLKTVSYKACLPPSLRDVIQGQNFVTRRRIRRTVVLALRRVVACQADRYALMAKYILDLERLHPAATTETFRVGLPGAQEEPGLLRVAGDNGISWSSGDQELFQTFCDFPEIVDVSIKQAPRVGPAGEHRLVTVTRMDGHILEAEFPGLPEALSFVALVDGYFRLICDSRHYFCKEVAPPRLLEEEAELCHGPITLDFAIHKLKAAGSLPGTYILRRSPQDYDSFLLTACVQTPLGPDYKGCLIRQDPSGAFSLVGLSQPHRSLRELLAACWNSGLRVDGAALNLTSCCAPRPKEKSNLIVRRGCTPAPAPG
modifications: phosphorylated; amino acid sequence of Glutathione S-transferase-Phosphorylated truncated Janus Kinase 3 fusion protein
- level of binding to P-Villin: approximately the same level as P-WT-Jak3 and Jak3-G257

- Kd (plates pre-coated with P-Villin, read-out: dissociation constant (Kd)): 40 nM
B3: […]: GST-truncated Jak3 lacking JH1-JH4 (SEQ ID NO. 10); contains the FERM domain alone (protein)
chain: [no letters for about 200 residues]SDLVPRGSPNSMAPPSEETPLIPQRSCSLSSSEAGALHVLLPPRGPGPPQRLSFSFGDYLAEDLCVRAAKACGILPVYHSLFALATEDFSCWFPPSHIFCIEDVDTQVLVYRLRFYFPDWFGLETCHRFGLRKDLTSAILDLHVLEHLFAQHRSDLVSGRLPVGLSMKEQGEFLSLAVLDLAQMAREQAQRPGELLKTVSYKACLPPSLRDVIQGQNFVTRRRIRRTVVLALRRVVACQADRYALMAKYILDLERLHPAATTETFRVLPGAQEEPGLLRVAG
modifications: amino acid sequence of Glutathione S-transferase-truncated Janus Kinase 3 fusion protein
notes: contains the FERM domain alone
- level of binding to P-Villin: approximately the same level as P-WT-Jak3

- level of binding to P-Villin: relatively lower level of binding
B4: […]: GST-Jak3 fusion protein lacking the JH1 domain (SEQ ID NO. 8) (protein)
chain: [no letters for about 200 residues]SDLVPRGSPNSMAPPSEETPLIPQRSCSLSSSEAGALHVLLPPRGPGPPQRLSFSFGDYLAEDLCVRAAKACGILPVYHSLFALATEDFSCWFPPSHIFCIEDVDTQVLVYRLRFYFPDWFGLETCHRFGLRKDLTSAILDLHVLEHLFAQHRSDLVSGRLPVGLSMKEQGEFLSLAVLDLAQMAREQAQRPGELLKTVSYKACLPPSLRDVIQGQNFVTRRRIRRTVVLALRRVVACQADRYALMAKYILDLERLHPAATTETFRVGLPGAQEEPGLLRVAGDNGISWSSGDQELFQTFCDFPEIVDVSIKQAPRVGPAGEHRLVTVTRMDGHILEAEFPGLPEALSFVALVDGYFRLICDSRHYFCKEVAPPRLLEEEAELCHGPITLDFAIHKLKAAGSLPGTYILRRSPQDYDSFLLTACVQTPLGPDYKGCLIRQDPSGAFSLVGLSQPHRSLRELLAACWNSGLRVDGAALNLTSCCAPRPKEKSNLIVVRRGCTPAPAPGCSPSCCALTQLSFHTIPTDSLEWHENLGHGSFTKIFRGRRREVVDGETHDSEVLLKVMDSRHRNCMESFLEAASLMSQVSYPHLVLLHGVCMAGDSIMVQEFVYLGAIDMYLRKRGHLVSASWKLQVTKQLAYALNYLEDKGLPHGNVSARKVLLAREGGDGNPPFIKLSDPGVSPTVLSLEMLTDRIPWVAPECLQEAQTLCLEADKWGFGATTWEVFSGGPAHITSLEPAKKLKFYEDQGQLPALKWTELAGLITQCMAYDPGRRPSFRAILRDLNGLITSDYELLSDPPGIPSPRDELCG
modifications: amino acid sequence of Glutathione S-Transferase-truncated Janus Kinase 3 fusion protein

Each block holds one molecule with its values, some of them ahead of it.
